Test results: the supplement of paper PMC12217912
Some of the results follow. Sequences were assembled here from the parent chain. Inactive controls read about 0.05.

B1: TEV protease; numbered along this chain (parent)
chain: MGESLFKGPRDYNPISSSICHLTNESDGHTTSLYGIGFGPFIITNKHLFRRNNGTLVVQSLHGVFKVKDTTTLQQHLVDGRDMIIIRMPKDFPPFPQKLKFREPQREERICLVTTNFQTKSMSSMVSDTSCTFPSGDGIFWKHWIQTKDGQCGSPLVSTRDGFIVGIHSASNFTNTNNYFTSVPKNFMELLTNQEAQQWVSGWRLNADSVLWGGHKVFMVKPEEPFQPVKEATQL

Variants of: B1
Test: raw area under fraction-flipped curve 0-4 h after induction (AUC4h, not background-subtracted), DNA-recorder readout of cleavage of the substrate (dimensionless); higher = more cleavage of the substrate by the protease variant
Conditions: temperature: 34 °C; time window: 0-4 h after rhamnose induction
Experimental: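 In vivo DNA recorder in E. coli TOP10(DE3) ΔrhaA at 34 °C. Each TEVp single-site mutant (parent TEVp 0) is paired with a single-site variant of the 7-mer TEVs (canonical ENLYFQ|S). The substrate sits between flexible linkers in a Bxb1-sfGFP-TEVs-SsrA fusion, so cleavage stabilises Bxb1 and speeds flipping of a recombination array, read by NGS. The value is the raw area under the fraction-flipped curve over 0-4 h after rhamnose induction (AUC4h), with ≥20 reads per time point. It is not background-subtracted; inactive controls average about 0.047.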
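Note: Bxb1 expression induced with 0.2% (w/v) L-rhamnose at OD600 near 0.5, cultures sampled hourly, flipped fraction per protease–substrate barcode pair counted by paired-end Illumina sequencing.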

Variant | area with substrate EALYFQS | area with substrate ECLYFQS | area with substrate EDLYFQS | area with substrate EELYFQS | area with substrate EFLYFQS | area with substrate EKLYFQS | area with substrate ELLYFQS | area with substrate ERLYFQS | area with substrate ESLYFQS | area with substrate EVLYFQS | area with substrate EWLYFQS | area with substrate EYLYFQS | area with substrate EGLYFQS | area with substrate EHLYFQS | area with substrate EILYFQS | area with substrate EMLYFQS | area with substrate EQLYFQS | area with substrate EPLYFQS | area with substrate ETLYFQS
MGESLFKGPRDYNPISSSICHLTNESDGHTTSLYGIGFGPFIITNKHLFRRNNGTLVVQSLHGVFKVKDTTTLQQHLVDGRDMIIIRMPKDFPPFPQKLKFREPQREERICLVTTNFQTKSMSSMVSDTSCTFPSGDGIFQKHWIQTKDGQCGSPLVSTRDGFIVGIHSASNFTNTNNYFTSVPKNFMELLTNQEAQQWVSGWRLNADSVLWGGHKVFMVKPEEPFQPVKEATQL [W141Q] | 0.0419 | 0.0584 | 0.0683 | 0.0699 | 0.0668 | 0.0579 | 0.0432 | 0.0617 | 0.0552 | 0.0488 | 0.057 | 0.0611 |  |  |  |  |  |  | 
MGESLFKGPRDYNPISSSICHLTNESDGHTTSLYGIGFGPFIITNKHLFRRNNGTLVVQSLHGVFKVKDTTTLQQHLVDGRDMIIIRMPKDFPPFPQKLKFREPQREERICLVTTNFQTKSMSSMVSDTSCTFPSGDGIFWMHWIQTKDGQCGSPLVSTRDGFIVGIHSASNFTNTNNYFTSVPKNFMELLTNQEAQQWVSGWRLNADSVLWGGHKVFMVKPEEPFQPVKEATQL [K142M] | 0.0999 | 0.106 | 0.132 | 0.088 | 0.0262 |  |  | 0.0957 | 0.114 | 0.097 | 0.0986 | 0.0974 | 0.105 | 0.111 | 0.0882 | 0.0972 | 0.112 |  | 
MGESLFKGPRDYNPISSSICHLTNESDGHTTSLYGIGFGPFIITNKHLFRRNNGTLVVQSLHGVFKVKDTTTLQQHLVDGRDMIIIRMPKDFPPFPQKLKFREPQREERICLVTTNFQTKSMSSMVSDTSCTFPSGDGIFWHHWIQTKDGQCGSPLVSTRDGFIVGIHSASNFTNTNNYFTSVPKNFMELLTNQEAQQWVSGWRLNADSVLWGGHKVFMVKPEEPFQPVKEATQL [K142H] | 0.0962 | 0.108 | 0.12 | 0.132 | 0.0832 | 0.0776 | 0.0841 | 0.113 | 0.096 | 0.111 | 0.0843 | 0.115 | 0.112 | 0.126 | 0.123 | 0.116 | 0.128 | 0.113 | 0.12
MGESLFKGPRDYNPISSSICHLTNESDGHTTSLYGIGFGPFIITNKHLFRRNNGTLVVQSLHGVFKVKDTTTLQQHLVDGRDMIIIRMPKDFPPFPQKLKFREPQREERICLVTTNFQTKSMSSMVSDTSCTFPSGDGFFWKHWIQTKDGQCGSPLVSTRDGFIVGIHSASNFTNTNNYFTSVPKNFMELLTNQEAQQWVSGWRLNADSVLWGGHKVFMVKPEEPFQPVKEATQL [I139F] | 0.127 | 0.052 | 0.136 | 0.146 |  | 0.109 |  |  |  | 0.0973 | 0.152 |  |  |  | 0.0852 | 0.129 |  | 0.133 | 
MGESLFKGPRDYNPISSSICHLTNESDGHTTSLYGIGFGPFIITNKHLFRRNNGTLVVQSLHGVFKVKDTTTLQQHLVDGRDMIIIRMPKDFPPFPQKLKFREPQREERICLVTTNFQTKSMSSMVSDTSCTFPSGDGYFWKHWIQTKDGQCGSPLVSTRDGFIVGIHSASNFTNTNNYFTSVPKNFMELLTNQEAQQWVSGWRLNADSVLWGGHKVFMVKPEEPFQPVKEATQL [I139Y] | 0.163 | 0.0642 |  | 0.131 | 0.132 | 0.113 |  |  | 0.114 | 0.104 | 0.11 |  | 0.103 |  | 0.0963 | 0.0868 | 0.116 | 0.12 | 
MGESLFKGPRDYNPISSSICHLTNESDGHTTSLYGIGFGPFIITNKHLFRRNNGTLVVQSLHGVFKVKDTTTLQQHLVDGRDMIIIRMPKDFPPFPQKLKFREPQREERICLVTTNFQTKSMSSMVSDTSCTFPSGDGMFWKHWIQTKDGQCGSPLVSTRDGFIVGIHSASNFTNTNNYFTSVPKNFMELLTNQEAQQWVSGWRLNADSVLWGGHKVFMVKPEEPFQPVKEATQL [I139M] | 0.128 | 0.103 |  | 0.138 | 0.123 | 0.14 | 0.0875 | 0.129 | 0.125 | 0.0875 | 0.0893 | 0.133 | 0.107 |  | 0.0881 | 0.146 | 0.156 | 0.117 | 0.152
MGESLFKGPRDYNPISSSICHLTNESDGHTTSLYGIGFGPFIITNKHLFRRNNGTLVVQSLHGVFKVKDTTTLQQHLVDGRDMIIIRMPKDFPPFPQKLKFREPQREERICLVTTNFQTKSMSSMVSDTSCTFPSGDGIEWKHWIQTKDGQCGSPLVSTRDGFIVGIHSASNFTNTNNYFTSVPKNFMELLTNQEAQQWVSGWRLNADSVLWGGHKVFMVKPEEPFQPVKEATQL [F140E] | 0.0636 | 0.06 | 0.0618 |  |  |  | 0.0665 | 0.0602 |  | 0.0622 | 0.0859 |  | 0.0588 |  | 0.0484 | 0.0743 | 0.0595 | 0.06 | 0.0591
MGESLFKGPRDYNPISSSICHLTNESDGHTTSLYGIGFGPFIITNKHLFRRNNGTLVVQSLHGVFKVKDTTTLQQHLVDGRDMIIIRMPKDFPPFPQKLKFREPQREERICLVTTNFQTKSMSSMVSDTSCTFPSGCGIFWKHWIQTKDGQCGSPLVSTRDGFIVGIHSASNFTNTNNYFTSVPKNFMELLTNQEAQQWVSGWRLNADSVLWGGHKVFMVKPEEPFQPVKEATQL [D137C] | 0.111 | 0.0771 |  | 0.0835 |  | 0.077 | 0.0763 |  |  | 0.0852 | 0.0804 | 0.0854 | 0.0988 | 0.0882 | 0.0883 |  | 0.0981 |  | 
MGESLFKGPRDYNPISSSICHLTNESDGHTTSLYGIGFGPFIITNKHLFRRNNGTLVVQSLHGVFKVKDTTTLQQHLVDGRDMIIIRMPKDFPPFPQKLKFREPQREERICLVTTNFQTKSMSSMVSDTSCTFPSGKGIFWKHWIQTKDGQCGSPLVSTRDGFIVGIHSASNFTNTNNYFTSVPKNFMELLTNQEAQQWVSGWRLNADSVLWGGHKVFMVKPEEPFQPVKEATQL [D137K] | 0.0371 | 0.0791 |  | 0.148 |  | 0.121 | 0.0804 | 0.0875 | 0.0696 | 0.0868 | 0.0653 | 0.0984 | 0.098 | 0.0832 | 0.0897 |  | 0.0905 | 0.109 | 
